# Laboratory results published in PubChem BioAssay AID686979 (National Center for Advancing Translational Sciences (NCATS), 2013).
# Screen size: about 420,000 compounds; about 50,000 (12%) were called active. The shares of active, inactive and inconclusive entries below differ from those in the screen. The call rests on the fitted dose curve; in most records, active means well fitted inhibition curve with a large enough effect; inconclusive means small, poorly fitted or top-dose-only effect; inactive means flat fitted curve, though single readings scatter. No potency is given beside an inconclusive call; the fits are too rough.
# Test: qHTS for Inhibitors of human tyrosyl-DNA phosphodiesterase 1 (TDP1): qHTS in cells in presence of CPT; further: nearly all actives have a fitted effect of over 55% in size
# Details: chicken DT40 Tdp1-/-;hTDP1 cells + 20 nM CPT, ATP luminescence, 48 h; activity change, negative = growth inhibition: at 46.2 µM (top of the series) unless noted
# How it was run: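 Chicken DT40 Tdp1-/- cells complemented with human TDP1, 400 cells/well, exposed to compounds plus 20 nM camptothecin for at least 48 h at 37 C; viability read as ATP content by CellTiter-Glo luminescence.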
# On the % scale 0 is the no-effect control and ±100 the full control effect; potency means the concentration at half of the fitted maximal effect; tags describe the fitted curve by direction and shape.
SMILES,Potency,"activity change, negative = growth inhibition"
COc1ccc(CC(=O)Nc2c(C(=O)N3CCN(c4ccccc4F)CC3)oc3ccccc23)cc1OC,active: 10.3 µM,
COCCn1c(SCC(=O)Nc2cccnc2Cl)nc2ccccc2c1=O,,inactive: -21.9%
CC(C)CC(=O)Nc1nc2ccc(S(C)(=O)=O)cc2s1,,inactive: -20.2%
CN(C)S(=O)(=O)c1cccc(C(=O)Nc2n[nH]c(C(F)(F)F)n2)c1,,inactive: 22.2%
O/N=C(\c1ccccc1)C(O)c1ccccc1 (stereo not drawn),,inactive: -6.12%
NCCCC[C@H]1CNC(=S)N1CCc1cccc(F)c1,"inconclusive [inhibitor, full curve, poor fit]",
N#Cc1cc(-c2ccccc2)[nH]c1-c1nccc2ccccc12,"inconclusive [inhibitor, single point]",
Nc1nnc(-c2cccc([N+](=O)[O-])c2)s1,,inactive: 2.7%
CCCC(c1nnnn1Cc1ccc(OC)cc1)N1CCN(c2ccccc2)CC1 (stereo not drawn),"inconclusive [inhibitor, single point]",
CCc1ccc2nc(N=C(N)N)nc(C)c2c1,active: 10.3 µM,
OC[C@@H]1CN(Cc2cccc3ccccc23)C[C@H](n2cnc3c(NCc4ccco4)ncnc32)O1,active: 20.6 µM,
COc1ccc(C(C(=O)NC2CCCCC2)N(C(=O)CCl)c2ccc(Cl)cc2)cc1 (stereo not drawn),active: 1.03 µM,
N/C(=N\OC(=O)c1cc([N+](=O)[O-])ccc1Cl)c1cccnc1,"inconclusive [inhibitor, single point]",
Cc1cc(C(=O)NCCCC(=O)O)c(C)o1,,inactive: -3.53%
COc1ccc(NC(=O)CSc2ccc(F)cc2)cc1S(=O)(=O)N1CCCCC1,active: 20.6 µM,
CC(C)n1c(Sc2nccn2C)nc2c1c(=O)n(C)c(=O)n2C,"inconclusive [inhibitor, single point]",
CC(CC(=O)Nc1nc2ccccc2[nH]1)c1ccccc1 (stereo not drawn),"inconclusive [inhibitor, single point]",
CCN(C(=O)c1cc2c(=O)oc3ccccc3c2s1)c1cccc(C(F)(F)F)c1,,inactive: -5.36%
COc1ccccc1NS(=O)(=O)c1ccc2oc(SCc3ccc(C#N)cc3)nc2c1,active: 11.6 µM,
CCCN(CC1CC1)C(=O)COc1ccccc1C(=O)NCc1ccccc1,"inconclusive [inhibitor, single point]",
O=C(O)CSc1cc(NS(=O)(=O)c2cccc([N+](=O)[O-])c2)c2ccccc2c1O,active: 2.31 µM,
CCC(=O)N(Cc1ccc(S(N)(=O)=O)cc1)C1CC(=O)N(c2ccccc2)C1=O (stereo not drawn),,inactive: 8.67%
Cn1cc(CNCc2ccc(OC(F)(F)F)cc2)c(-c2ccc3c(c2)OCCO3)n1,active: 7.31 µM,
COc1ccc(NC(=O)CSC2=Nc3ccccc3C3=NC(Cc4ccccc4)C(=O)N23)cc1 (stereo not drawn),"inconclusive [inhibitor, single point]",
O=S(=O)(c1ccccc1)c1cccc(S(=O)(=O)N2CCCCC2)c1,"inconclusive [inhibitor, single point]",
O=[N+]([O-])c1ccc(-c2cn(-c3ccccc3)c(=S)[nH]2)cc1,,inactive: 8.41%
Nc1c(C(=O)NCc2ccco2)sc2nc(N3CCOCC3)c3c(c12)CCCC3,"inconclusive [inhibitor, single point]",

SMILES,Potency,"activity change, negative = growth inhibition"
CC(C(=O)Nc1ccc(C(F)(F)F)cc1)N(C)CC(=O)N1CCN(Cc2ccccc2)CC1 (stereo not drawn),"inconclusive [inhibitor, single point]",
O=C(Nc1nc2cc3c(cc2s1)OCO3)c1ccco1,"inconclusive [inhibitor, partial curve]",
Cc1ccccc1-c1cc(C(=O)NCc2ccco2)nn1CC1CC(c2cccc([N+](=O)[O-])c2)=NO1 (stereo not drawn),active: 16.4 µM,
O=C(Nc1ccc(SC(F)F)cc1)C1=CC=CN2CCS(=O)(=O)N=C12,"inconclusive [inhibitor, partial curve]",
O=S(=O)(c1ccc(F)cc1)N1CCN=C1SCc1cccnc1,,inactive: -5.28%
C=CCn1c(O)c2ccc(C(=O)N=NC(=O)c3ccc(F)cc3)cc2c1O,,inactive: -8.47%
O=C(Nc1ccccc1)/C(=C/c1ccc([N+](=O)[O-])cc1)NC(=O)c1ccco1,,inactive: -4.58%
Cc1ccc(OCC(=O)NCCCNC(=O)COc2ccc(C)cc2)cc1,"inconclusive [inhibitor, single point]",
N#CC1=C(N)NC(SCc2ccc(Cl)cc2)=C(C#N)C12CCCCC2,"inconclusive [inhibitor, single point]",
O=C(NCc1ccccc1)C1C(=O)Nc2ccccc2C(=O)N1c1ccc2c(c1)OCCO2 (stereo not drawn),,inactive: -5.03%
CC(C)N(C(=O)c1ccc(-c2ccccc2F)cc1)C(C)C,"inconclusive [inhibitor, single point]",
Cc1nn2c(NCCCN3CCOCC3)c3c(nc2c1-c1ccccc1)CCC3,"inconclusive [inhibitor, single point]",
Cc1ccc(-c2csc3ncnc(N4CCN(C)CC4)c23)cc1C,"inconclusive [inhibitor, single point]",
COc1ccccc1Nc1ncc2c(n1)CCN(CC(C)C)C2,"inconclusive [inhibitor, single point]",
O=C(Nc1ccccc1)OCCOc1ccc(Br)cc1,,inactive: -21.3%
C=CCOc1ccc(CNc2nccs2)cc1OCC,"inconclusive [inhibitor, single point]",
COc1ccc(CN2CCc3nnc(CCc4ccccc4)n3CC2)c(OC)c1C,"inconclusive [inhibitor, single point]",
COCCOC(=O)c1c(C)oc2ccc(NS(=O)(=O)c3ccc(C)cc3)cc12,"inconclusive [inhibitor, single point]",
COc1cccc(C#Cc2ccc3c(c2)O[C@@H](CN(C)C(=O)c2ccccn2)[C@@H](C)CN([C@H](C)CO)S3(=O)=O)c1,"inconclusive [inhibitor, single point]",
COCCNC(=O)c1ccc2c(c1)NC(=O)C(CS(=O)(=O)Cc1ccc(F)cc1Cl)N2 (stereo not drawn),,inactive: -11.9%
COc1cc(C)c(S(=O)(=O)Nc2cccc(-c3ccc(N4CCCC4)nn3)c2)cc1C,"inconclusive [inhibitor, single point]",
COc1cccc(NC(=O)C(=O)c2cn(CC(=O)N3CCOCC3)c3ccccc23)c1,"inconclusive [inhibitor, single point]",
O=c1oc2ccccc2c(Nc2cccc(O)c2)c1[N+](=O)[O-],"inconclusive [inhibitor, single point]",
Cc1cccc2cc(CN(Cc3ccc4c(c3)OCO4)Cc3nnnn3C3CCCC3)c(=O)[nH]c12,"inconclusive [inhibitor, single point]",
COc1ccc(-n2nc(C(=O)NCC(=O)NCCCN3CCN(C)CC3)c3ccccc3c2=O)cc1OC,,inactive: 3.87%
COc1ccccc1-c1c(C(F)(F)F)oc2c(CN3CCCCC3C)c(O)ccc2c1=O (stereo not drawn),"inconclusive [inhibitor, single point]",
